Experimental data: the supplement of paper PMC10369915
The list shows a part of the results. No stated cut-off is given here; in the data, active = 3.2 or more and inactive = the rest. Most of these values are background signal.

Legend:
Test in all cases: enrichment score (SH2-bound / input frequency) (ratio); bacterial display of known human phosphotyrosine sites (pTyr-Var adds point mutants) read by sequencing; higher = stronger binding; tyrosines were phosphorylated by kinases first
Conditions in all cases: peptide library: pTyr-Var
SHP2 C-SH2 domain E139D = target: SHP2 C-SH2 domain E139D
[1] = target: SHP2 C-SH2 domain wild-type
SHP2 N-SH2 domain L43F = target: SHP2 N-SH2 domain L43F
SHP2 N-SH2 domain T42A = target: SHP2 N-SH2 domain T42A
SHP2 N-SH2 domain T52S = target: SHP2 N-SH2 domain T52S
[2] = target: SHP2 N-SH2 domain wild-type

Measured: enrichment score
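Further: displayed peptides selected on beads carrying the immobilized SH2 domain, with library peptides lacking any tyrosine serving as negative controls.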

B1: KIF3C_Y574 (peptide)
chain: ELRGTYTSLQQ
inactive: SHP2 C-SH2 domain E139D 0.733 | [1] 1.95 | SHP2 N-SH2 domain L43F 2.3 | SHP2 N-SH2 domain T42A 1.57 | SHP2 N-SH2 domain T52S 1.98 | [2] 0.92

B2: KIF3C_Y574_R571Q (peptide)
chain: ELQGTYTSLQQ
inactive: SHP2 C-SH2 domain E139D 0.877 | [1] 1.18 | SHP2 N-SH2 domain L43F 1.38 | SHP2 N-SH2 domain T42A 1.11 | SHP2 N-SH2 domain T52S 1.4 | [2] 0.759

B3: KIR3DL2_Y253 (peptide)
chain: SSYDIYHLSRE
inactive: SHP2 C-SH2 domain E139D 0.624 | [1] 0.807 | SHP2 N-SH2 domain L43F 0.834 | SHP2 N-SH2 domain T42A 0.71 | SHP2 N-SH2 domain T52S 0.797 | [2] 0.539

B4: KIR3DL2_Y253_I252T_YF (peptide)
chain: SSFDTYHLSRE
inactive: SHP2 C-SH2 domain E139D 0.674 | [1] 0.452 | SHP2 N-SH2 domain L43F 0.586 | SHP2 N-SH2 domain T42A 0.424 | SHP2 N-SH2 domain T52S 0.682 | [2] 0.546

B5: KIR3DL2_Y253_YF (peptide)
chain: SSFDIYHLSRE
inactive: SHP2 C-SH2 domain E139D 1.34 | [1] 0.759 | SHP2 N-SH2 domain L43F 0.941 | SHP2 N-SH2 domain T42A 0.931 | SHP2 N-SH2 domain T52S 1.12 | [2] 0.968

B6: KIR3DL2_Y398_T397M (peptide)
chain: PQEVMYAQLDH
inactive: SHP2 C-SH2 domain E139D 1.85 | [1] 2.78
active: SHP2 N-SH2 domain L43F 7.39 | SHP2 N-SH2 domain T42A 9.74 | SHP2 N-SH2 domain T52S 7.34 | [2] 3.78

B7: KIR3DS1_Y221 (peptide)
chain: VVTGLYEKPSL
inactive: SHP2 C-SH2 domain E139D 1.08 | [1] 0.579 | SHP2 N-SH2 domain L43F 1.05 | SHP2 N-SH2 domain T42A 0.849 | SHP2 N-SH2 domain T52S 0.792 | [2] 0.844

B8: KIRREL3_Y332 (peptide)
chain: RTVDVYFGPRM
inactive: SHP2 C-SH2 domain E139D 0.535 | [1] 0.339 | SHP2 N-SH2 domain L43F 0.448 | SHP2 N-SH2 domain T42A 0.6 | SHP2 N-SH2 domain T52S 0.941 | [2] 0.53

B9: KISS1_Y112 (peptide)
chain: KDLPNYNWNSF
inactive: SHP2 C-SH2 domain E139D 1.37 | [1] 0.973 | SHP2 N-SH2 domain L43F 0.98 | SHP2 N-SH2 domain T42A 0.696 | SHP2 N-SH2 domain T52S 0.837 | [2] 1.13

B10: KISS1_Y112_N115K (peptide)
chain: KDLPNYNWKSF
inactive: SHP2 C-SH2 domain E139D 0.742 | [1] 0.722 | SHP2 N-SH2 domain L43F 0.74 | SHP2 N-SH2 domain T42A 0.524 | SHP2 N-SH2 domain T52S 0.789 | [2] 0.87

B11: KIT_Y547_YF (peptide)
chain: ILTFKYLQKPM
inactive: SHP2 C-SH2 domain E139D 1.39 | [1] 1.4 | SHP2 N-SH2 domain L43F 1.31 | SHP2 N-SH2 domain T42A 1.38 | SHP2 N-SH2 domain T52S 1.71 | [2] 1.62

B12: KIT_Y553 (peptide)
chain: LQKPMYEVQWK
inactive: SHP2 C-SH2 domain E139D 0.877 | [1] 0.801 | SHP2 N-SH2 domain L43F 0.978 | SHP2 N-SH2 domain T42A 0.735 | SHP2 N-SH2 domain T52S 0.784 | [2] 1.05

B13: KIT_Y823 (peptide)
chain: KNDSNYVVKGN
inactive: SHP2 C-SH2 domain E139D 0.532 | [1] 0.649 | SHP2 N-SH2 domain L43F 0.604 | SHP2 N-SH2 domain T42A 0.401 | SHP2 N-SH2 domain T52S 0.425 | [2] 0.619

B14: KIT_Y823_D820G (peptide)
chain: KNGSNYVVKGN
inactive: SHP2 C-SH2 domain E139D 0.396 | [1] 0.603 | SHP2 N-SH2 domain L43F 0.566 | SHP2 N-SH2 domain T42A 0.428 | SHP2 N-SH2 domain T52S 0.572 | [2] 0.497

B15: KLB_Y906_YF (peptide)
chain: RLRKFYLGKFL
inactive: SHP2 C-SH2 domain E139D 0.217 | [1] 0.238 | SHP2 N-SH2 domain L43F 0.468 | SHP2 N-SH2 domain T42A 0.293 | SHP2 N-SH2 domain T52S 0.238 | [2] 0.284

B16: KLHDC9_Y175_YF (peptide)
chain: PSARTYCFKQE
inactive: SHP2 C-SH2 domain E139D 0.99 | [1] 1.05 | SHP2 N-SH2 domain L43F 0.669 | SHP2 N-SH2 domain T42A 0.696 | SHP2 N-SH2 domain T52S 0.773 | [2] 1.3

B17: KLHL3_Y577 (peptide)
chain: STGRSYAGVAV
inactive: SHP2 C-SH2 domain E139D 0.602 | [1] 0.697 | SHP2 N-SH2 domain L43F 0.662 | SHP2 N-SH2 domain T42A 0.624 | SHP2 N-SH2 domain T52S 0.704 | [2] 0.765

B18: KLHL4_Y552_S557L (peptide)
chain: GRQWNYVASML
inactive: SHP2 C-SH2 domain E139D 1.45 | [1] 1.27 | SHP2 N-SH2 domain L43F 1.56 | SHP2 N-SH2 domain T42A 1.13 | SHP2 N-SH2 domain T52S 1.34 | [2] 1.52

B19: KLK2_Y249_R250W (peptide)
chain: TKVVHYWKWIK
inactive: SHP2 C-SH2 domain E139D 2.88 | [1] 2.94 | SHP2 N-SH2 domain T52S 3.11 | [2] 2.84
active: SHP2 N-SH2 domain L43F 3.65 | SHP2 N-SH2 domain T42A 3.69

B20: KMT2B_Y1707 (peptide)
chain: VLRRVYVDFEG
inactive: SHP2 C-SH2 domain E139D 0.839 | [1] 0.786 | SHP2 N-SH2 domain L43F 0.817 | SHP2 N-SH2 domain T42A 0.75 | SHP2 N-SH2 domain T52S 0.885 | [2] 0.789

B21: KMT2D_Y2378 (peptide)
chain: SYTDPYAQPPL
inactive: SHP2 C-SH2 domain E139D 0.611 | [1] 0.6 | SHP2 N-SH2 domain L43F 0.534 | SHP2 N-SH2 domain T42A 0.406 | SHP2 N-SH2 domain T52S 0.583 | [2] 0.608

B22: KMT2D_Y2378_P2382S_YF (peptide)
chain: SFTDPYAQPSL
inactive: SHP2 C-SH2 domain E139D 0.631 | [1] 0.534 | SHP2 N-SH2 domain L43F 0.705 | SHP2 N-SH2 domain T42A 0.526 | SHP2 N-SH2 domain T52S 0.659 | [2] 0.564

B23: KMT2D_Y2378_YF (peptide)
chain: SFTDPYAQPPL
inactive: SHP2 C-SH2 domain E139D 0.537 | [1] 0.567 | SHP2 N-SH2 domain L43F 0.591 | SHP2 N-SH2 domain T42A 0.496 | SHP2 N-SH2 domain T52S 0.562 | [2] 0.559

B24: KMT2D_Y5349 (peptide)
chain: KILTHYKRPHT
active: SHP2 C-SH2 domain E139D 3.41 | SHP2 N-SH2 domain T52S 3.37 | [2] 3.28
inactive: [1] 2.79 | SHP2 N-SH2 domain L43F 3.11 | SHP2 N-SH2 domain T42A 2.89

B25: KNL1_Y489_A486S_YF (peptide)
chain: NFSKMYCNPDA
inactive: SHP2 C-SH2 domain E139D 0.911 | [1] 0.733 | SHP2 N-SH2 domain L43F 0.594 | SHP2 N-SH2 domain T42A 0.667 | SHP2 N-SH2 domain T52S 0.818 | [2] 0.681

B26: KNSTRN_Y87_P92S (peptide)
chain: VVKTVYSLQPS
inactive: SHP2 C-SH2 domain E139D 0.746 | [1] 1.14 | SHP2 N-SH2 domain L43F 0.86 | SHP2 N-SH2 domain T42A 0.72 | SHP2 N-SH2 domain T52S 0.918 | [2] 0.911

B27: KRAS_Y32_I36M (peptide)
chain: HFVDEYDPTME
inactive: SHP2 C-SH2 domain E139D 0.767 | [1] 1.07 | SHP2 N-SH2 domain L43F 0.699 | SHP2 N-SH2 domain T42A 0.619 | SHP2 N-SH2 domain T52S 0.696 | [2] 0.954

B28: KRAS_Y32_P34Q (peptide)
chain: HFVDEYDQTIE
inactive: SHP2 C-SH2 domain E139D 0.766 | [1] 0.721 | SHP2 N-SH2 domain L43F 0.906 | SHP2 N-SH2 domain T42A 0.542 | SHP2 N-SH2 domain T52S 0.428 | [2] 0.831

B29: KRAS_Y64_Q61R (peptide)
chain: AGREEYSAMRD
inactive: SHP2 C-SH2 domain E139D 0.523 | [1] 0.574 | SHP2 N-SH2 domain L43F 0.488 | SHP2 N-SH2 domain T42A 0.372 | SHP2 N-SH2 domain T52S 0.436 | [2] 0.579

B30: KRT1_Y358 (peptide)
chain: EVKAQYEDIAQ
inactive: SHP2 C-SH2 domain E139D 0.652 | [1] 0.43 | SHP2 N-SH2 domain L43F 0.511 | SHP2 N-SH2 domain T42A 0.457 | SHP2 N-SH2 domain T52S 0.447 | [2] 0.57

B31: KRT1_Y358_Y358N (peptide)
chain: EVKAQNEDIAQ
inactive: SHP2 C-SH2 domain E139D 0.57 | [1] 0.4 | SHP2 N-SH2 domain L43F 0.345 | SHP2 N-SH2 domain T42A 0.443 | SHP2 N-SH2 domain T52S 0.851 | [2] 0.516

B32: KRT1_Y532 (peptide)
chain: SGGSSYGSGGG
inactive: SHP2 C-SH2 domain E139D 0.466 | [1] 0.468 | SHP2 N-SH2 domain L43F 0.419 | SHP2 N-SH2 domain T42A 0.529 | SHP2 N-SH2 domain T52S 0.434 | [2] 0.677

B33: KRT1_Y539_G537C (peptide)
chain: SGGCSYGSGGG
inactive: SHP2 C-SH2 domain E139D 0.567 | [1] 0.732 | SHP2 N-SH2 domain L43F 0.655 | SHP2 N-SH2 domain T42A 0.679 | SHP2 N-SH2 domain T52S 0.529 | [2] 0.973

B34: KRT10_Y160 (peptide)
chain: DRLASYLDKVR
inactive: SHP2 C-SH2 domain E139D 0.935 | [1] 0.996 | SHP2 N-SH2 domain L43F 0.998 | SHP2 N-SH2 domain T42A 0.864 | SHP2 N-SH2 domain T52S 0.878 | [2] 0.89

B35: KRT10_Y160_R156H (peptide)
chain: DHLASYLDKVR
inactive: SHP2 C-SH2 domain E139D 1.3 | [1] 1.01 | SHP2 N-SH2 domain L43F 1.05 | SHP2 N-SH2 domain T42A 0.938 | SHP2 N-SH2 domain T52S 1.12 | [2] 1.11

B36: KRT10_Y160_R156S (peptide)
chain: DSLASYLDKVR
inactive: SHP2 C-SH2 domain E139D 1.09 | [1] 0.833 | SHP2 N-SH2 domain L43F 0.981 | SHP2 N-SH2 domain T42A 0.75 | SHP2 N-SH2 domain T52S 0.905 | [2] 1.01

B37: KRT10_Y160_Y160D (peptide)
chain: DRLASDLDKVR
inactive: SHP2 C-SH2 domain E139D 0.831 | [1] 0.789 | SHP2 N-SH2 domain L43F 0.72 | SHP2 N-SH2 domain T42A 0.638 | SHP2 N-SH2 domain T52S 0.639 | [2] 0.847
